Laboratory results taken from patent US20150148387A1, “METHODS OF TREATMENT, DIAGNOSIS AND […] METHA[…] WHICH TARGET CERAMIDE METABOLIC […] AND […] SENESCENCE” (priority 2012, published 2015).
Where a name gives a salt, the structure may show the parent alone.

Assays:
[1] = tested on: ceramide content and IL-6 and p21 mRNA; assay: Acute experiment in mice: methamphetamine alone or in combination with L-CS
[2] = tested on: NF-kB subunit p65 at the TNF-α promoter; assay: Chromatin immunoprecipitation assay in MEF; settings: 1 mM, harvested 24 hrs later
[3] = tested on: ceramide synthases and age-related genes TNF-α, IL-6, p21, p53; assay: Acute methamphetamine administration in rats: gene expression (RT-PCR)
[4] = tested on: enzymes of de novo ceramide biosynthesis (SPT, CerS) and age-related genes TNF-α, IL-6, p21, p53; assay: Methamphetamine self-administration in rats: gene expression (RT-PCR)
[5] = tested on: primary mouse embryonic fibroblasts (MEF); assay: Gene expression in MEF; format: cell-based; settings: methamphetamine treatment
Method: Total RNA was extracted from frozen tissues using TRIzol reagent (Invitrogen, Carlsbad, Calif.) and was purified with the RNeasy mini kit (Qiagen, Valencia, Calif.). First-strand complementary DNAs were synthesized using SuperScript II RNaseH reverse transcriptase (Invitrogen). Reverse transcription of total RNA (2 μg) was carried out using oligo(dT)12-18 primers for 50 min at 42° C. mRNA levels were measured by quantitative real-time polymerase chain reaction (RT-PCR) with a Mx 3000P system (Stratagene, La Jolla, Calif.). The following list of primers and fluorogenic probes purchased from Applied Biosystems (TaqMan Gene Expression Assays, Foster City, Calif.): Ceramide Synthase 1 (Rn01420081_m1), Ceramide Synthase 2 (Rn01762789_m1), Ceramide Synthase 4 (Rn01767402_m1), Ceramide Synthase 5 (Rn01532864_m1), Ceramide Synthase 6 (Rn01270930_m1), Interleukin-6 (Rn01410330_m1). mRNA levels were normalized using beta actin, 18S ribosomal protein or glyceraldehyde-3-phosphate dehydrogenase as internal standards. Additional PCR primers were designed using Primer 3 (https://www.Frodo.wit.mit.edu), and the sequences are shown in S.Table XXX.
Mouse embryonic fibroblasts (MEFs) were prepared from mice embryo as previously reported. Briefly, pregnant mice at day 13 post coitum were sacrificed and the uteri were dissected out. […]

Row | SMILES | methamphetamine-induced increase of IL-6 and p21 mRNA ([1]; methamphetamine in combination with L-CS) | recruitment of NF-kB subunit p65 to the TNF-α promoter [2] | transcription of IL-6 and p21 ([3]; acute methamphetamine treatment) | expression of mRNA transcripts encoding for ceramide synthases isoforms ([3]; dorsal striatum, methamphetamine-treated vs saline-treated rats) | CerS6 gene expression ([3]; non-contingent methamphetamine administration, data not shown) | transcription of age-related genes TNF-α, IL-6, p21, and p53 ([4]; methamphetamine self-administration) | serine palmitoyltransferase (SPT) and ceramide synthase (CerS) gene expression ([4]; skeletal muscle, self-administering rats) | expression of IL-6 and p21 mRNA ([1]; acute treatment with methamphetamine alone) | transcription of inflammatory cytokines, IL-6 and TNF-alpha [5]
1 | N[C@H]1CONC1=O [L-cycloserine] | block the increase | – | – | – | – | – | – | – | –
2 | CN[C@@H](C)Cc1ccccc1 [methamphetamine, S(+)-methylamphetamine HCl] | – | recruitment | increased transcription | markedly and selectively elevated | increased | elevated levels | increased | increased | elevation
